Laboratory results published in publication PMC4336329 (PLoS ONE, 2015).
Out of some 310,000 compounds screened, about 2,200 (0.71%) showed an effect of 50% or more. Effects have a minus sign here. Some of the results follow.

Target: human ether-à-go-go-related gene (hERG) potassium channel (human, UniProt Q12809)
Experiment: primary screen, population patch clamp on CHO cells stably expressing hERG

human ether-à-go-go-related gene (hERG) potassium channel, sequence (Q12809 whole entry, looked up): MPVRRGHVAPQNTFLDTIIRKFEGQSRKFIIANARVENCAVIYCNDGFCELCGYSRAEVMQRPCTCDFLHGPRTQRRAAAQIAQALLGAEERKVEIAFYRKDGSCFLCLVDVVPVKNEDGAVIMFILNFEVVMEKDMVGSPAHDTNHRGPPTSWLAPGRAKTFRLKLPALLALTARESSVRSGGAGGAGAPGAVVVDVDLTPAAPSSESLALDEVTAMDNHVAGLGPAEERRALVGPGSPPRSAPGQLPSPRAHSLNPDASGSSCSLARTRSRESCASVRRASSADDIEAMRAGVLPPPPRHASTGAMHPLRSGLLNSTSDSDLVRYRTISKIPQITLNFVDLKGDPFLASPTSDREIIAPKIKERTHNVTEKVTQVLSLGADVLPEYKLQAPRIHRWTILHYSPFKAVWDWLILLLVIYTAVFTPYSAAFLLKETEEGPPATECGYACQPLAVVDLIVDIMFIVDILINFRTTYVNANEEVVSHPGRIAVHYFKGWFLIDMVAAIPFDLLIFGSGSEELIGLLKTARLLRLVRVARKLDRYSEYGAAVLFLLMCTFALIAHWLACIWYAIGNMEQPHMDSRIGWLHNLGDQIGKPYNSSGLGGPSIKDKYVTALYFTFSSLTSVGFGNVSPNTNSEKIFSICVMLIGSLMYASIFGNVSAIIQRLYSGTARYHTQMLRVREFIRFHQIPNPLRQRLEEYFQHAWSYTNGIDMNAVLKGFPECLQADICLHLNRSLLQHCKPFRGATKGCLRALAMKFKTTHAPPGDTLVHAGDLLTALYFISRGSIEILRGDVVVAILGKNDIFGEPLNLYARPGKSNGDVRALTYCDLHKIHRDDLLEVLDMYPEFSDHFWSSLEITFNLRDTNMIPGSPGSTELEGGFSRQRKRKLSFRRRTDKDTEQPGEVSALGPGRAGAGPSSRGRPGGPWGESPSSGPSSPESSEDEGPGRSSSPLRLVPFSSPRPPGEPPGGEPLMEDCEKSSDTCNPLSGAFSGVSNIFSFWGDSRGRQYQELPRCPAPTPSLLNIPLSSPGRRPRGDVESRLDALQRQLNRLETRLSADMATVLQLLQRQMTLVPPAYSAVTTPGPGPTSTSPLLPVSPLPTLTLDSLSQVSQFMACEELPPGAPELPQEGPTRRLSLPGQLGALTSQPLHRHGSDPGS

| SMILES | hERG current change (%, negative = inhibition) at 1uM [%] |
| --- | --- |
| O=C(Cc1ccccc1)N1CCc2ccccc21 | 4.09 |
| COc1ccc(OC)c(NC(=O)c2ccc(CSc3ncccn3)cc2)c1 | 16 |
| COc1ccc(OCC(=O)Nc2cc(-c3nn(C)c(=O)c4ccccc34)ccc2OC)cc1 | 9.4 |
| O=c1cc(CSc2ccccc2)[nH]c2ccccc12 | 14 |
| O=C(NN1C(=O)C2C3C=CC(C3)[C@H]2C1=O)c1cccnc1 (stereo partly shown) | 17.1 |
| COc1ccc(NC(=O)CN(C)C(=O)C2=NN(c3ccccc3)C(=O)CC2)cc1 | 13.8 |
| O=C1CN(C(=O)COc2ccccc2Cl)c2ccccc2N1 | 1.21 |
| O=C1NC(Cc2ccccc2)c2nc3ccccc3c(=O)n2-c2cc(Cl)ccc21 (stereo not shown) | 9.83 |
| COc1ccc(C2C(C(=O)c3ccc(C)o3)=C(O)C(=O)N2Cc2ccco2)cc1OC (stereo not shown) | 12.4 |
| COc1ccc(CNC(=O)c2cccc(NC(=O)c3ccccc3)c2)cc1 | -25.7 |
| OCCNCCCOc1cc(Cl)ccc1Cl | 8.45 |
| Cc1nc(N)c(C#N)c(-c2cccnc2)c1-c1ccccc1 | 3.28 |
| COC(=O)CSC1=C(C#N)C(c2ccc(C(C)C)cc2)CC(=O)N1 (stereo not shown) | 11 |
| O=C(O)/C=C/C(=O)c1ccc2c(c1)CCc1ccccc1-2 | 11.3 |
| Cc1cccc(C(=O)OC2CCOC2=O)c1C (stereo not shown) | 9.18 |
| Cc1cnc(C(=O)OC(C(=O)c2ccccc2)c2ccccc2)cn1 (stereo not shown) | 5.37 |
| COc1ccc(N=c2ssnc2Cl)cc1 | 13.9 |
| COc1ccc([C@H]2CC(=O)C=C(c3cc(C=O)ccc3OC)C2)cc1OC | 0.902 |
| Cc1ccc(-n2nnnc2-c2cnc(-c3cccnc3)nc2C(F)(F)F)cc1 | -2.33 |
| CN(C)N1C(N)=C(C#N)C(c2ccc3c(c2)OCO3)C2=C1CCCC2=O (stereo not shown) | 7.08 |
| O=c1ccc(-c2ccc(S(=O)(=O)N3CCN(c4ccccc4)CC3)o2)n[nH]1 | 6.36 |
| CCC1=NN(C(=O)Cc2ccc([N+](=O)[O-])cc2)C(O)(C(C)(C)C)C1 (stereo not shown) | -13.3 |
| O=[N+]([O-])c1ccc(N2CCCCC2)c(Cl)c1N1CCCCC1 | 8.22 |
| Cc1ccc(-c2onc(C)c2C)cc1S(=O)(=O)N1CC(C)Oc2ccccc21 (stereo not shown) | 12.6 |
| Cc1ccc(OCCOc2ccc(Br)cc2)c([N+](=O)[O-])n1 | 16.8 |
